Reference: the supplement of paper PMC3334620
The full ranking holds about 33,000 sequences; the median of “E-score (-0.5 to 0.5)” is about -0.011, and the highest 2% start at about 0.28. The list shows a part of the results.

Target: T1, Gcr1 (UniProt P07261)
T1 sequence: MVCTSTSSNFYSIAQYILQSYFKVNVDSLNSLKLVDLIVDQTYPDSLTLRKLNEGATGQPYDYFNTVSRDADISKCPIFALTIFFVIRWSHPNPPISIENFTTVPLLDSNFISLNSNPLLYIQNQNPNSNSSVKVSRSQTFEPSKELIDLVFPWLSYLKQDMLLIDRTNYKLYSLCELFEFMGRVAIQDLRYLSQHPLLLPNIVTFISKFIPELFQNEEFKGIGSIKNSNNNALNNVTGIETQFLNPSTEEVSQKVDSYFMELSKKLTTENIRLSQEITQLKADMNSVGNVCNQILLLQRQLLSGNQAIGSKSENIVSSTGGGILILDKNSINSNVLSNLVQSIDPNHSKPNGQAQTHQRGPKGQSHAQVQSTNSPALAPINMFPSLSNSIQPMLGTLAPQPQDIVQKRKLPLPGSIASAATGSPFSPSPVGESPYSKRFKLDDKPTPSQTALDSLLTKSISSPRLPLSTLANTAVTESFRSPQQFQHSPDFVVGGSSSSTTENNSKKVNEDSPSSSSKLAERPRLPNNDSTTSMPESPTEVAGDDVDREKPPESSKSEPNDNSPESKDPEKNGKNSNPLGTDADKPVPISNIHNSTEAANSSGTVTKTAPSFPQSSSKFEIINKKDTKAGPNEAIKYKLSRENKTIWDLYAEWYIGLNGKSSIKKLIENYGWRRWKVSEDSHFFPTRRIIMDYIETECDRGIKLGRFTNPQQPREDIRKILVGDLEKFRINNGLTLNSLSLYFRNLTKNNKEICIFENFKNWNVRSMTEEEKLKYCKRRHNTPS
Experiment: PBM E-score (8-mer binding enrichment) (E-score (-0.5 to 0.5)); higher = stronger / more preferred TF binding; most listed sequences are background and not binding sites
Settings: protein concentration: 100 nM; construct: GST-full length
Description: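 Universal 'all 10-mer' protein binding microarrays (Agilent AMADID 015681) probed with GST-tagged S. cerevisiae TFs (full-length or DBD) made by in vitro transcription/translation (PURExpress), about 100-200 nM. Bound TF was detected with fluorescent anti-GST. Each ungapped 8-mer (which stands for itself and its reverse complement) is scored by the PBM enrichment score (E-score), a modified Wilcoxon-Mann-Whitney statistic from -0.5 to +0.5, computed with the Universal PBM Analysis Suite. Scale: above 0.35 generally sequence-specific binding.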

Sequence	PBM E-score
GGTTAGAC	-0.16
AACCTCGG	-0.05
GGGCGAAA	-0.0628
TAGCAGGA	-0.0539
AAGTTCTG	0.00543
CAGAGACC	-0.036
AATAGAAG	0.206
ATTCTGCC	-0.0536
ACGTAATA	0.0685
GGCCCTTA	-0.0164
CTCTTCGC	-0.103
CAGGGGAG	0.191
CGGTTACG	0.063
CACTTAGG	0.0326
ATTATAGA	0.11
CTGAAGCA	-0.171
ACAAAAGG	-0.0382
CCGCATCC	0.31
TAGCCTGA	-0.232
CTACCCAG	-0.0746
GCAACTCA	-0.0076
ACAATAAC	0.117

Sequence	PBM E-score
CCGGCGAC	0.0114
AGGGTTCC	0.312
ACTAGAAC	0.096
ATGTGAGG	-0.0741
GAATTTTA	0.142
AGGGGGAT	-0.101
CTCATAGC	-0.0196
ACTTGCCA	-0.0232
AACACGAT	0.153
AATCGCAC	-0.198
ATTGGGTA	0.0705
GAAAACGC	-0.167
CCACAGAA	-0.0106
GATCGATA	-0.107
GGTACATA	0.0063
ATTTATTC	0.0157
GTGCACAC	-0.273
CAACAAAC	-0.031
TAGCCCAA	0.0287
GAACTATC	-0.0331
CAGAACCG	0.106
CTAATCCA	0.153

Sequence	PBM E-score
ATAGCGCG	-0.0481
CCGCCACC	0.0145
ACTCTGCG	0.0871
ACACTCTG	-0.0677
ATGCGGAC	-0.207
CGTCAATA	0.0371
ACAGTGAC	-0.204
CATCGGCG	-0.0746
TTCGCCAA	0.0203
CTGGTACC	0.121
GCTTCTCC	0.27
AGCACTGC	-0.377
AAGTCAGC	0.0011
AATTTCGG	0.129
ACTGTCCT	-0.18
AAATTTTG	0.088
AATACCAC	0.097
ATTGCCAG	-0.0225
ATAGTACC	-0.0805
GCATAAGA	-0.0473
CTCGGCTA	-0.0839
CTCTGGAC	0.0684

Sequence	PBM E-score
AGACTCGA	-0.032
ATTTGGCG	0.175
GGTACCAC	0.0105
AGGCCGAC	-0.162
TTGGCCAA	-0.203
AGCACAGC	-0.0849
AAGAGTAT	-0.118
TCGCTAGA	-0.00814
AAGGTTCA	-0.179
TGGCTTAA	0.0227
CAGAACAC	-0.107
TAACTCTA	-0.0602
GCGCTAGA	-0.0867
CCTGTGGC	0.14
AAGCCTGG	-0.107
ATGGATCA	-0.201
AACAGGCT	0.0848
CACAAGAC	0.0989
CATATCCA	-0.129
CTGTCCGA	-0.154
